Values marked as one replicate rest on one cluster of the flow cell; about a third of the high ones do not repeat.
Tested on: ATP
Assay: switch fluorescence ratio, 500 uM ATP over buffer (Cy3 cluster intensity, sum of 5 cycles each) (fold (ratio)); higher = stronger signal-on switching upon ATP binding; sequences stand for … in TCGTCGGCAGCGTCAGATGTGTATAAGAGACAGTTTTTTTTTTTTTTTTTTTTTTTTT…TC
Conditions: aptamer strand: ATP DNA aptamer (quencher-CACCTGGGGGAGTATTGCGGAGGAAGG + anchor), 100 nM annealed; ATP concentration: 500 uM; one replicate
How it was run: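 Clusters carrying Cy3-labelled switching strands on a modified Illumina MiSeq flow-cell were annealed to 100 nM quencher-labelled ATP aptamer and imaged in selection buffer. They were imaged again after 15 min with 500 uM ATP at 22 °C, over five buffer/ATP cycles with NaOH stripping and re-annealing in between. For each cluster, the fluorescence ratio is the summed Cy3 intensity of the target cycles divided by that of the buffer cycles, averaged per switch-domain sequence. Clusters outside 100-1000 RFU were left out.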
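Also: ATP exposure 15 min at 22 °C before imaging.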

| Sequence | switch fluorescence ratio |
| --- | --- |
| TCCCAGAGGG | 1.1 |
| TGTCCTGAAG | 1.02 |
| TTTTACTA | 1 |
| TTTCGACAGC | 1.13 |
| TGAAGTTCCG | 1.04 |
| CTTAATACAG | 1.02 |
| GGTGCGACGC | 1.03 |
| ACCGTTAAAT | 1.07 |
| TGGTGG | 0.989 |
| GGGAACCGAT | 0.964 |
| GCTCAAGTCC | 1.01 |
| TACTAGGTAA | 1.01 |
| GTTTGGGCCC | 0.981 |
| ATCGTGCAAG | 0.99 |
| GACTTGCATC | 1.19 |
| GAAGCACTC | 3.08 |
| CCCCATTGTC | 1.04 |
| TCCAGAACTT | 1.03 |
| ATTAACGGTC | 0.987 |
| GACCGAATT | 0.989 |
| ATTATTGTGG | 1.01 |
| GACCTTTCCA | 1.14 |
| ACTGGTTTTA | 1.03 |
| AAGGCGGGT | 1.02 |
| GCAATAAAGT | 0.99 |
| GCGTACGGCA | 1.01 |

| Sequence | switch fluorescence ratio |
| --- | --- |
| TTTAGTTCTA | 0.972 |
| AAATTCGCA | 1.02 |
| GCACAATAAG | 1.05 |
| GCCGTAACTC | 1.05 |
| CGGCCTGTAG | 0.995 |
| ACATTCGTTC | 0.98 |
| CACGATGCT | 1.05 |
| TTTTTGGTC | 0.964 |
| AGCTCGTTTG | 0.988 |
| ACCCGAGAGC | 1.13 |
| CAGACGCAGT | 2.3 |
| CTCCCTATTG | 1 |
| GTTGTCTTGC | 0.966 |
| CTAAATGATC | 1.08 |
| CCCGGACGTC | 1.04 |
| AATACTGGGC | 1.01 |
| AGTCCCGTAC | 1.1 |
| CCGGCCTCGG | 1 |
| GGTCTATGGC | 0.989 |
| GTGATAGTCG | 0.957 |
| CGTACGGGGG | 1 |
| GCAATAGGCA | 1.08 |
| TACTCGCCGA | 1.04 |
| AACGGTACAT | 1.37 |
| TGCATAAGTC | 1.03 |
| GTGGAGGAAA | 1.04 |

| Sequence | switch fluorescence ratio |
| --- | --- |
| GTTACACGCC | 1.07 |
| GAAATGAAGT | 0.987 |
| GATATTGCAC | 1.07 |
| GGATGGCCTG | 1.01 |
| AAGACGCTAT | 1.23 |
| AACATAAGTC | 1.03 |
| GCCGTAGCGT | 1.06 |
| TAGGGAGGTA | 1.08 |
| AGTCAGAGCG | 1.03 |
| CCTTCACTCA | 1.3 |
| CAAAATGAGG | 0.989 |
| GTTGTATCTG | 0.989 |
| GGCCCTAGAT | 0.969 |
| ACGGTGGTTT | 0.988 |
| ACATTTGGGC | 0.954 |
| CGACGCACGT | 3.08 |
| GTGTAGGCTC | 1 |
| ATCGGGAACG | 0.99 |
| ACTCGCATCT | 1.77 |
| GAGTAACCCG | 1.04 |
| TCCGAGGGGA | 1.65 |
| CATGGATCTT | 1.01 |
| GGGCGTCCCG | 0.995 |
| TAAAAACCCG | 1.05 |
| TAGAACGGGT | 0.992 |
| CGCTTTTAAA | 1.01 |

| Sequence | switch fluorescence ratio |
| --- | --- |
| AAAGCCGTC | 1.03 |
| CCGGTCAGTC | 1.34 |
| AGCTTGAAAA | 1.01 |
| CATGGGTCTG | 0.99 |
| CATCATATAT | 1 |
| ATTGTAGTT | 0.972 |
| GCTACGGTCG | 1.04 |
| AACAGGTAGT | 1.01 |
| TGCGGTCACG | 0.997 |
| AACTAGTGCA | 0.954 |
| AGTTGCTCAG | 0.989 |
| AGCGAGTGGG | 1.05 |
| GCTTCTATT | 1.01 |
| TGCGCTGAGC | 1.05 |
| GTGAGGATTA | 1.02 |
| CGTGATAGCA | 1 |
| GCGTCCTATG | 0.967 |
| ACACTTAAAC | 1 |
| CCATGCTCTA | 1.04 |
| GAACGGGACG | 1.05 |
| AACTTCAGCC | 1.69 |
| TGAAGGGACT | 1.01 |
| GTACCTATAA | 1.03 |
| CCTGTTTACC | 1.06 |
| TGTTTTGTCT | 0.931 |
| GTAGCCGAGG | 1.05 |

| Sequence | switch fluorescence ratio |
| --- | --- |
| TTGCCTAGGG | 0.968 |
| GACTTTCGCA | 1.51 |
| GTTTTCTAGG | 0.974 |
| GCTAGTAGTG | 0.955 |
| ATGCCCCCCG | 1.08 |
| TAAAGTGTTA | 0.984 |
| GGAGTTGGAG | 1.01 |
| CAGTTTAAGA | 1.04 |
| CGAGTCAGTA | 1.02 |
| TGGGAATTAC | 1.05 |
| TAAAGGGCGG | 1.17 |
| TGCGCTGTCT | 1.02 |
| CGCATATCCG | 1.16 |
| GTGAGAAATA | 0.987 |
| TCATTTAACC | 1.09 |
| CCTGAGCAAT | 1.86 |
| CAGGATGCAG | 1.04 |
| ATGGAAATGT | 0.987 |
| GTCGGGGCCT | 1.01 |
| CGGGCTCTAG | 0.984 |
| CAAATCGAAT | 0.99 |
| TCACATCGTT | 1.04 |
| CCGGGATT | 1.04 |
| TACGTCACTT | 1.65 |
| CCCAGGAGCT | 1.36 |
| GCACTCACC | 1.6 |

| Sequence | switch fluorescence ratio |
| --- | --- |
| GCCGTGTTGA | 1.04 |
| TATGTTGTGG | 0.957 |
| CAATGACTCT | 1 |
| TATAGTCAAT | 1.04 |
| TAGGAGAGCA | 0.985 |
| GTATGGTTGG | 0.932 |
| ATGATCGGTC | 0.994 |
| GCGGTGGTCT | 1.02 |
| AGAAGTATGT | 1.04 |
| ACCAGGAAAT | 1.03 |
| TTTAGGTCTG | 1.02 |
| TATTGGAAGG | 0.962 |
| GCGTGTCTAC | 0.996 |
| GCCCTTTGGG | 1.02 |
| GGATTGCTGG | 0.978 |
| AAAGGGCTAG | 0.993 |
| AGCAAATCCT | 1.15 |
| GGGCGATTGC | 0.979 |
| GGACATAAAA | 1.01 |
| TGACCCCTT | 1 |
| TTCCTATACT | 1.11 |
| GAGGCGAGAA | 1.07 |
| ATTAAAACCG | 1.1 |

— the supplement of paper PMC10126150
